Laboratory results reported in the supplement of paper PMC4604168 (melanoma cell lines).
The list shows a part of the results. Repeats are few or missing, and single values can be far off.

Each molecule was assayed on MEL-HO (assay: cell count relative to DMSO control; melanoma cells; higher = more viable cells). Details: library dose: low library concentration; 72 h.
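Further: cell number obtained by counting DAPI-stained nuclei in high-throughput microscope images with image analysis software, screen run in 1,536-well plates.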

SMILES	cell count [%]
C[C@@H](Oc1cc(-c2cnn(C3CCNCC3)c2)cnc1N)c1c(Cl)ccc(F)c1Cl [Crizotinib] + CO[C@H]1C[C@@H]2CC[C@@H](C)[C@@](O)(O2)C(=O)C(=O)N2CCCC[C@H]2C(=O)O[C@H]([C@H](C)C[C@@H]2CC[C@@H](OCCO)[C@H](OC)C2)CC(=O)[C@H](C)/C=C(\C)[C@@H](O)[C@@H](OC)C(=O)[C@H](C)C[C@H](C)/C=C/C=C/C=C/1C [everolimus] (first compound 0.2 µM, partner dose 0.02 µM)	68
CN1CCN(c2ccc3nc(-c4c(N)c5c(F)cccc5[nH]c4=O)[nH]c3c2)CC1 [Dovitinib] + CC(=O)c1c(C)c2cnc(Nc3ccc(N4CCNCC4)cn3)nc2n(C2CCCC2)c1=O [palbociclib] (first compound 0.1 µM, partner dose 0.04 µM)	95.2
CS(=O)(=O)CCNCc1ccc(-c2ccc3ncnc(Nc4ccc(OCc5cccc(F)c5)c(Cl)c4)c3c2)o1 [lapatinib] + C#Cc1cccc(Nc2ncnc3cc(OCCOC)c(OCCOC)cc23)c1 [erlotinib] (first compound 0.8 µM, partner dose 0.8 µM)	102
C[C@@H](Oc1cc(-c2cnn(C3CCNCC3)c2)cnc1N)c1c(Cl)ccc(F)c1Cl [Crizotinib] + CN1CCN(c2ccc3nc(-c4c(N)c5c(F)cccc5[nH]c4=O)[nH]c3c2)CC1 [Dovitinib] (first compound 0.2 µM, partner dose 0.1 µM)	93.5
CS(=O)(=O)CCNCc1ccc(-c2ccc3ncnc(Nc4ccc(OCc5cccc(F)c5)c(Cl)c4)c3c2)o1 [lapatinib] + OCc1c[nH]c2ccccc12 [Indole-3-carbinol] (first compound 0.8 µM, partner dose 0.8 µM)	95.7
CNC(=O)c1cc(Oc2ccc(NC(=O)Nc3ccc(Cl)c(C(F)(F)F)c3)cc2)ccn1 [sorafenib] + C#Cc1cccc(Nc2ncnc3cc(OCCOC)c(OCCOC)cc23)c1 [erlotinib] (first compound 0.4 µM, partner dose 0.8 µM)	98.3
C=CCNC1=C2C[C@@H](C)C[C@H](OC)[C@H](O)[C@@H](C)/C=C(\C)[C@H](OC(N)=O)[C@@H](OC)/C=C\C=C(/C)C(=O)NC(=CC1=O)C2=O [Tanespimycin] + Cn1c(Nc2ccc(C(F)(F)F)cc2)nc2cc(Oc3ccnc(-c4ncc(C(F)(F)F)[nH]4)c3)ccc21 [CHIR265] (first compound 0.002 µM, partner dose 0.08 µM)	82.4
CN1CCN(c2ccc3nc(-c4c(N)c5c(F)cccc5[nH]c4=O)[nH]c3c2)CC1 [Dovitinib] + OCc1c[nH]c2ccccc12 [Indole-3-carbinol] (first compound 0.1 µM, partner dose 0.8 µM)	113
CNC(=O)c1cc(Oc2ccc(NC(=O)Nc3ccc(Cl)c(C(F)(F)F)c3)cc2)ccn1 [sorafenib] + CS(=O)(=O)CCNCc1ccc(-c2ccc3ncnc(Nc4ccc(OCc5cccc(F)c5)c(Cl)c4)c3c2)o1 [lapatinib] (first compound 0.4 µM, partner dose 0.8 µM)	102
CN1CCN(c2ccc3nc(-c4c(N)c5c(F)cccc5[nH]c4=O)[nH]c3c2)CC1 [Dovitinib] + CS(=O)(=O)CCNCc1ccc(-c2ccc3ncnc(Nc4ccc(OCc5cccc(F)c5)c(Cl)c4)c3c2)o1 [lapatinib] (first compound 0.1 µM, partner dose 0.8 µM)	97.2
CNC(=O)c1cc(Oc2ccc(NC(=O)Nc3ccc(Cl)c(C(F)(F)F)c3)cc2)ccn1 [sorafenib] + Nc1nc(F)nc2c1ncn2[C@@H]1O[C@H](CO)[C@@H](O)[C@@H]1O [fludarabine] (first compound 0.4 µM, partner dose 0.2 µM)	99.6
CNC(=O)c1cc(Oc2ccc(NC(=O)Nc3ccc(Cl)c(C(F)(F)F)c3)cc2)ccn1 [sorafenib] + COc1ccc(Cl)c(Nc2nc3ccccc3nc2NS(=O)(=O)c2cccc(NC(=O)C(C)(C)N)c2)c1 [XL147] (first compound 0.4 µM, partner dose 0.8 µM)	91.9
CS(=O)(=O)CCNCc1ccc(-c2ccc3ncnc(Nc4ccc(OCc5cccc(F)c5)c(Cl)c4)c3c2)o1 [lapatinib] + C=C(c1ccc(C(=O)O)cc1)c1cc2c(cc1C)C(C)(C)CCC2(C)C [Bexarotene] (first compound 0.8 µM, partner dose 2 µM)	97.6
C[C@@H](Oc1cc(-c2cnn(C3CCNCC3)c2)cnc1N)c1c(Cl)ccc(F)c1Cl [Crizotinib] + C#Cc1cccc(Nc2ncnc3cc(OCCOC)c(OCCOC)cc23)c1 [erlotinib] (first compound 0.2 µM, partner dose 0.8 µM)	103
CNC(=O)c1cc(Oc2ccc(NC(=O)Nc3ccc(Cl)c(C(F)(F)F)c3)cc2)ccn1 [sorafenib] + Cn1c(Nc2ccc(C(F)(F)F)cc2)nc2cc(Oc3ccnc(-c4ncc(C(F)(F)F)[nH]4)c3)ccc21 [CHIR265] (first compound 0.4 µM, partner dose 0.08 µM)	91.3
C=CCNC1=C2C[C@@H](C)C[C@H](OC)[C@H](O)[C@@H](C)/C=C(\C)[C@H](OC(N)=O)[C@@H](OC)/C=C\C=C(/C)C(=O)NC(=CC1=O)C2=O [Tanespimycin] + CC(=O)c1c(C)c2cnc(Nc3ccc(N4CCNCC4)cn3)nc2n(C2CCCC2)c1=O [palbociclib] (first compound 0.002 µM, partner dose 0.04 µM)	91.8
CN1CCN(c2ccc3nc(-c4c(N)c5c(F)cccc5[nH]c4=O)[nH]c3c2)CC1 [Dovitinib] + Cc1nc(Nc2ncc(C(=O)Nc3c(C)cccc3Cl)s2)cc(N2CCN(CCO)CC2)n1 [dasatanib] (first compound 0.1 µM, partner dose 0.004 µM)	94.8
CN1CCN(c2ccc3nc(-c4c(N)c5c(F)cccc5[nH]c4=O)[nH]c3c2)CC1 [Dovitinib] + C=C(c1ccc(C(=O)O)cc1)c1cc2c(cc1C)C(C)(C)CCC2(C)C [Bexarotene] (first compound 0.1 µM, partner dose 2 µM)	80.7
CNC(=O)c1cc(Oc2ccc(NC(=O)Nc3ccc(Cl)c(C(F)(F)F)c3)cc2)ccn1 [sorafenib] + CC(=O)c1c(C)c2cnc(Nc3ccc(N4CCNCC4)cn3)nc2n(C2CCCC2)c1=O [palbociclib] (first compound 0.4 µM, partner dose 0.04 µM)	83.1
C=CCNC1=C2C[C@@H](C)C[C@H](OC)[C@H](O)[C@@H](C)/C=C(\C)[C@H](OC(N)=O)[C@@H](OC)/C=C\C=C(/C)C(=O)NC(=CC1=O)C2=O [Tanespimycin] + OCc1c[nH]c2ccccc12 [Indole-3-carbinol] (first compound 0.002 µM, partner dose 0.8 µM)	107
CS(=O)(=O)CCNCc1ccc(-c2ccc3ncnc(Nc4ccc(OCc5cccc(F)c5)c(Cl)c4)c3c2)o1 [lapatinib] + Cn1c(Nc2ccc(C(F)(F)F)cc2)nc2cc(Oc3ccnc(-c4ncc(C(F)(F)F)[nH]4)c3)ccc21 [CHIR265] (first compound 0.8 µM, partner dose 0.08 µM)	69.6
CN1CCN(c2ccc3nc(-c4c(N)c5c(F)cccc5[nH]c4=O)[nH]c3c2)CC1 [Dovitinib] + C=CCNC1=C2C[C@@H](C)C[C@H](OC)[C@H](O)[C@@H](C)/C=C(\C)[C@H](OC(N)=O)[C@@H](OC)/C=C\C=C(/C)C(=O)NC(=CC1=O)C2=O [Tanespimycin] (first compound 0.1 µM, partner dose 0.002 µM)	84.5
CN1CCN(c2ccc3nc(-c4c(N)c5c(F)cccc5[nH]c4=O)[nH]c3c2)CC1 [Dovitinib] + Nc1cccc2c1CN(C1CCC(=O)NC1=O)C2=O [lenalidomide] (first compound 0.1 µM, partner dose 1 µM)	91.4
CN1CCN(c2ccc3nc(-c4c(N)c5c(F)cccc5[nH]c4=O)[nH]c3c2)CC1 [Dovitinib] + O=C(O)[C@@H]1[O][Sb](=[O])([O][Sb]2(=[O])[O][C@H]([C@H](O)CO)[C@H](O)[C@H](C(=O)O)[O]2)[O][C@H]([C@H](O)CO)[C@@H]1O [stibogluconate] (first compound 0.1 µM, partner dose 2 µM)	98.1
C=CCNC1=C2C[C@@H](C)C[C@H](OC)[C@H](O)[C@@H](C)/C=C(\C)[C@H](OC(N)=O)[C@@H](OC)/C=C\C=C(/C)C(=O)NC(=CC1=O)C2=O [Tanespimycin] + COc1ccc(Cl)c(Nc2nc3ccccc3nc2NS(=O)(=O)c2cccc(NC(=O)C(C)(C)N)c2)c1 [XL147] (first compound 0.002 µM, partner dose 0.8 µM)	90.6
CN1CCN(c2ccc3nc(-c4c(N)c5c(F)cccc5[nH]c4=O)[nH]c3c2)CC1 [Dovitinib] + Nc1ncn([C@H]2C[C@H](O)[C@@H](CO)O2)c(=O)n1 [decitabine] (first compound 0.1 µM, partner dose 0.1 µM)	92.1
C[C@@H](Oc1cc(-c2cnn(C3CCNCC3)c2)cnc1N)c1c(Cl)ccc(F)c1Cl [Crizotinib] + Cc1nc(Nc2ncc(C(=O)Nc3c(C)cccc3Cl)s2)cc(N2CCN(CCO)CC2)n1 [dasatanib] (first compound 0.2 µM, partner dose 0.004 µM)	89.3
